Source: the supplement of paper PMC10369915
The list shows a part of the results. Rule as the data show it: active = 3.2 or more and inactive = the rest. Only a few entries rise above the background.

Target: SHP2 C-SH2 domain E139D
Assay: enrichment score (SH2-bound / input frequency) (ratio); bacterial display of known human phosphotyrosine sites (pTyr-Var adds point mutants) read by sequencing; higher = stronger binding; tyrosines were phosphorylated by kinases first
Details: peptide library: pTyr-Var
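Also: displayed peptides selected on beads carrying the immobilized SH2 domain, with library peptides lacking any tyrosine serving as negative controls.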

Binder	enrichment score
GFDHSYFFIAT [ESD_Y262_YF]	inactive: 0.622
NNHGNYIVRLG [ETFDH_Y172]	inactive: 1.04
SCTFTYLLGDR [ETHE1_Y38]	inactive: 0.774
DSASAYADEVK [ETNPPL_Y189]	inactive: 0.44
RALCHYFKLNI [ETV6_Y401_R399C_YF]	active: 3.27
ALRHYYKLNII [ETV6_Y402]	inactive: 3.04
ALCHYYKLNII [ETV6_Y402_R399C]	inactive: 3.05
NNTFLYQLVFD [EXO1_Y284]	inactive: 1.78
SNTFLYQLVFD [EXO1_Y284_N279S]	inactive: 1.7
NTSKMYIPHTD [EXPH5_Y782_D777N]	inactive: 0.775
EFISEFCGEII [EZH2_Y641_Y641F]	inactive: 0.848
AEPTGYSAELS [EZR_Y499]	inactive: 0.544
MLEVPYVDRNS [F10_Y384]	inactive: 0.752
MLEAPYVDRNS [F10_Y384_V382A]	inactive: 0.928
VTGWGYRKLRD [F11_Y521]	inactive: 0.266
ERPGVYTNVVE [F11_Y608]	inactive: 0.876
ERPGVHTNVVE [F11_Y608_Y608H]	inactive: 0.752
HFPFQYHRQLY [F12_Y53]	active: 3.74
HFPFQCHRQLY [F12_Y53_Y53C]	inactive: 2.16

Target: SHP2 C-SH2 domain wild-type
Assay: as above
Details: peptide library: pTyr-Var

Binder	enrichment score
GFDHSYFFIAT [ESD_Y262_YF]	inactive: 0.645
NNHGNYIVRLG [ETFDH_Y172]	inactive: 1.12
SCTFTYLLGDR [ETHE1_Y38]	inactive: 0.724
DSASAYADEVK [ETNPPL_Y189]	inactive: 0.3
RALCHYFKLNI [ETV6_Y401_R399C_YF]	inactive: 3.09
ALRHYYKLNII [ETV6_Y402]	inactive: 3.1
ALCHYYKLNII [ETV6_Y402_R399C]	inactive: 3.11
NNTFLYQLVFD [EXO1_Y284]	inactive: 1.68
SNTFLYQLVFD [EXO1_Y284_N279S]	inactive: 2.32
NTSKMYIPHTD [EXPH5_Y782_D777N]	inactive: 0.636
EFISEFCGEII [EZH2_Y641_Y641F]	inactive: 1.03
AEPTGYSAELS [EZR_Y499]	inactive: 0.584
MLEVPYVDRNS [F10_Y384]	inactive: 1
MLEAPYVDRNS [F10_Y384_V382A]	inactive: 0.717
VTGWGYRKLRD [F11_Y521]	inactive: 0.286
ERPGVYTNVVE [F11_Y608]	inactive: 0.983
ERPGVHTNVVE [F11_Y608_Y608H]	inactive: 0.852
HFPFQYHRQLY [F12_Y53]	inactive: 3.12
HFPFQCHRQLY [F12_Y53_Y53C]	inactive: 1.91

Target: SHP2 N-SH2 domain L43F
Assay: as above
Details: peptide library: pTyr-Var

Binder	enrichment score
GFDHSYFFIAT [ESD_Y262_YF]	inactive: 0.571
NNHGNYIVRLG [ETFDH_Y172]	inactive: 1.02
SCTFTYLLGDR [ETHE1_Y38]	inactive: 0.732
DSASAYADEVK [ETNPPL_Y189]	inactive: 0.504
RALCHYFKLNI [ETV6_Y401_R399C_YF]	active: 3.39
ALRHYYKLNII [ETV6_Y402]	inactive: 2.75
ALCHYYKLNII [ETV6_Y402_R399C]	inactive: 2.85
NNTFLYQLVFD [EXO1_Y284]	inactive: 1.76
SNTFLYQLVFD [EXO1_Y284_N279S]	inactive: 1.61
NTSKMYIPHTD [EXPH5_Y782_D777N]	inactive: 0.746
EFISEFCGEII [EZH2_Y641_Y641F]	inactive: 0.995
AEPTGYSAELS [EZR_Y499]	inactive: 0.681
MLEVPYVDRNS [F10_Y384]	inactive: 0.863
MLEAPYVDRNS [F10_Y384_V382A]	inactive: 0.958
VTGWGYRKLRD [F11_Y521]	inactive: 0.281
ERPGVYTNVVE [F11_Y608]	inactive: 0.891
ERPGVHTNVVE [F11_Y608_Y608H]	inactive: 0.847
HFPFQYHRQLY [F12_Y53]	active: 3.78
HFPFQCHRQLY [F12_Y53_Y53C]	inactive: 1.83

Target: SHP2 N-SH2 domain T42A
Assay: as above
Details: peptide library: pTyr-Var

Binder	enrichment score
GFDHSYFFIAT [ESD_Y262_YF]	inactive: 0.6
NNHGNYIVRLG [ETFDH_Y172]	inactive: 0.689
SCTFTYLLGDR [ETHE1_Y38]	inactive: 0.573
DSASAYADEVK [ETNPPL_Y189]	inactive: 0.396
RALCHYFKLNI [ETV6_Y401_R399C_YF]	inactive: 2.53
ALRHYYKLNII [ETV6_Y402]	inactive: 2.55
ALCHYYKLNII [ETV6_Y402_R399C]	inactive: 2.25
NNTFLYQLVFD [EXO1_Y284]	inactive: 1.73
SNTFLYQLVFD [EXO1_Y284_N279S]	inactive: 1.32
NTSKMYIPHTD [EXPH5_Y782_D777N]	inactive: 0.795
EFISEFCGEII [EZH2_Y641_Y641F]	inactive: 1
AEPTGYSAELS [EZR_Y499]	inactive: 0.505
MLEVPYVDRNS [F10_Y384]	inactive: 0.695
MLEAPYVDRNS [F10_Y384_V382A]	inactive: 0.701
VTGWGYRKLRD [F11_Y521]	inactive: 0.397
ERPGVYTNVVE [F11_Y608]	inactive: 0.891
ERPGVHTNVVE [F11_Y608_Y608H]	inactive: 0.551
HFPFQYHRQLY [F12_Y53]	active: 3.47
HFPFQCHRQLY [F12_Y53_Y53C]	inactive: 1.55

Target: SHP2 N-SH2 domain T52S
Assay: as above
Details: peptide library: pTyr-Var

Binder	enrichment score
GFDHSYFFIAT [ESD_Y262_YF]	inactive: 0.739
NNHGNYIVRLG [ETFDH_Y172]	inactive: 0.951
SCTFTYLLGDR [ETHE1_Y38]	inactive: 0.684
DSASAYADEVK [ETNPPL_Y189]	inactive: 0.376
RALCHYFKLNI [ETV6_Y401_R399C_YF]	inactive: 2.81
ALRHYYKLNII [ETV6_Y402]	inactive: 3.07
ALCHYYKLNII [ETV6_Y402_R399C]	inactive: 2.31
NNTFLYQLVFD [EXO1_Y284]	inactive: 1.68
SNTFLYQLVFD [EXO1_Y284_N279S]	inactive: 1.69
NTSKMYIPHTD [EXPH5_Y782_D777N]	inactive: 0.772
EFISEFCGEII [EZH2_Y641_Y641F]	inactive: 1.3
AEPTGYSAELS [EZR_Y499]	inactive: 0.594
MLEVPYVDRNS [F10_Y384]	inactive: 0.847
MLEAPYVDRNS [F10_Y384_V382A]	inactive: 0.847
VTGWGYRKLRD [F11_Y521]	inactive: 0.374
ERPGVYTNVVE [F11_Y608]	inactive: 0.874
ERPGVHTNVVE [F11_Y608_Y608H]	inactive: 0.781
HFPFQYHRQLY [F12_Y53]	active: 3.24
HFPFQCHRQLY [F12_Y53_Y53C]	inactive: 1.97

Target: SHP2 N-SH2 domain wild-type
Assay: as above
Details: peptide library: pTyr-Var

Binder	enrichment score
GFDHSYFFIAT [ESD_Y262_YF]	inactive: 0.544
NNHGNYIVRLG [ETFDH_Y172]	inactive: 0.803
SCTFTYLLGDR [ETHE1_Y38]	inactive: 0.889
DSASAYADEVK [ETNPPL_Y189]	inactive: 0.334
RALCHYFKLNI [ETV6_Y401_R399C_YF]	inactive: 2.96
ALRHYYKLNII [ETV6_Y402]	active: 3.21
ALCHYYKLNII [ETV6_Y402_R399C]	inactive: 2.93
NNTFLYQLVFD [EXO1_Y284]	inactive: 1.7
SNTFLYQLVFD [EXO1_Y284_N279S]	inactive: 2.27
NTSKMYIPHTD [EXPH5_Y782_D777N]	inactive: 0.723
EFISEFCGEII [EZH2_Y641_Y641F]	inactive: 0.826
AEPTGYSAELS [EZR_Y499]	inactive: 0.577
MLEVPYVDRNS [F10_Y384]	inactive: 1.16
MLEAPYVDRNS [F10_Y384_V382A]	inactive: 0.865
VTGWGYRKLRD [F11_Y521]	inactive: 0.527
ERPGVYTNVVE [F11_Y608]	inactive: 0.919
ERPGVHTNVVE [F11_Y608_Y608H]	inactive: 1.05
HFPFQYHRQLY [F12_Y53]	active: 3.25
HFPFQCHRQLY [F12_Y53_Y53C]	inactive: 1.98
